Among all 410,000 compounds or so, about 6,400 (1.6%) were called active. The inconclusive results got no clear call from the source; some entries with a clear call stand among them for comparison. Calls follow the shape of the dose curve; as a rule, active = well fitted inhibition curve with a large enough effect; inconclusive = small, poorly fitted or top-dose-only effect; inactive = no such curve, though single readings can be large or run the other way. Potencies of inconclusive entries are left out as doubtful fits.
target: Glucagon-like peptide 1 receptor (Homo sapiens) (UniProt P43220); test: qHTS of GLP-1 Receptor Inverse Agonists (Inhibition Mode); conditions: HEK293 GLP-1R CRE-luciferase, luminescence, 24 h, GLP-1R form is constitutively active; activity change, negative = inhibition: at 38.3 µM (top of the series) unless noted; also: nearly all actives have a fitted effect of over 55% in size
Sequence of UniProt P43220 (P43220 whole entry, looked up): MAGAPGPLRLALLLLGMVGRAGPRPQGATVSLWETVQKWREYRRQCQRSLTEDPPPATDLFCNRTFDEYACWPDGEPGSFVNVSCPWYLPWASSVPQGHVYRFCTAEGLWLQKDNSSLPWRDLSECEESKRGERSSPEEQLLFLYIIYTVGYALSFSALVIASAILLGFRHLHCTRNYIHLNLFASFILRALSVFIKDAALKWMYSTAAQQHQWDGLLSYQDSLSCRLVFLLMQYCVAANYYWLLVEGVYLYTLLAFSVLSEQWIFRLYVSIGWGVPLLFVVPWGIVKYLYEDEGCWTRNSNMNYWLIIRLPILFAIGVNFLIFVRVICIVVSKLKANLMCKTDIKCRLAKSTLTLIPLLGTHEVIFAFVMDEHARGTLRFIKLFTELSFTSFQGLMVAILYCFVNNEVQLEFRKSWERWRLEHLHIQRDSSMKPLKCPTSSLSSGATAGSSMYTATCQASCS
In short: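 qHTS in 1536-well format: reporter HEK293 cells expressing constitutive GLP-1R activity in DMEM + 10% Nu serum, 24 hr with compounds at 37 deg C, luminescence read after 12 min with detection reagent.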
% is scaled to controls: 0 for no effect and ±100 for the full control effect; potency is read from the fitted curve at half-maximal effect; tags tell the direction and shape of the fitted curve.

Structure (SMILES) | Potency | activity change, negative = inhibition
CCN(CC(=O)Nc1c(F)cccc1F)C(=O)c1ccc(COc2ccccc2)o1 | inconclusive [inhibitor, partial curve, poor fit] | 
CCOc1ccc(C(=O)CCC(=O)NNC(=O)CCN2CCN(c3ccccc3)CC2)cc1 |  | inactive: -2.51%
CCOc1ccc(C(=O)Nc2ccc(N3CCN(C(=O)c4ccco4)CC3)cc2)cc1Br | inconclusive [inhibitor, full curve, poor fit] | 
CC(C)CC1=NN(C(=O)c2cccnc2)C(O)(C(F)(F)F)C1 (stereo not given) | inconclusive [inhibitor, full curve, poor fit] | 
O=C1C=C(Nc2ccc(O)cc2)C(=O)c2ccccc21 |  | inactive: -7.99%
CC(C)(CNC(=O)/C=C/c1ccc(F)cc1)CNC(=O)/C=C/c1ccc(F)cc1 | active: 6.31 µM | 
COc1ccc(OC)c2sc(N(CCCN(C)C)C(=O)CCS(=O)(=O)c3ccccc3)nc12 | inconclusive [inhibitor, single point] | 
CCC(=O)N1c2ccccc2CC1C(=O)NCc1cccc(OC)c1OC (stereo not given) |  | inactive: 15%
Clc1ccc(-c2cc(CN3CCCCC3)no2)cc1Cl | active: 10 µM | 
COc1ccc(CCNC(=O)c2nn(C)cc2Cl)cc1 |  | inactive: 61.2%
CCCC[C@@]1(C2CCCC2)Cc2cc(OCC(=O)O)c(Cl)c(Cl)c2C1=O | inconclusive [inhibitor, single point] | 
COc1ccc(NC(C)C(=O)Nc2ccc(C#N)cc2)cc1Cl (stereo not given) | inconclusive [inhibitor, single point] | 
CCOc1ccc(NC(=S)N2CCC(C(O)(c3ccccc3)c3ccccc3)CC2)cc1 | inconclusive [inhibitor, single point] | 
O=c1c2ccccc2nc(N2CCN(c3ccccc3)CC2)n1Cc1ccccc1 | inconclusive [inhibitor, partial curve, poor fit] | 
Cc1ccc(C(C[N+](=O)[O-])c2c(C)[nH]n(-c3ccccc3)c2=O)cc1 (stereo not given) | inconclusive [inhibitor, partial curve, poor fit] | 
CCN(CC)S(=O)(=O)c1ccc(NC2CCCc3ccccc32)nc1 (stereo not given) | inconclusive [inhibitor, partial curve, poor fit] | 
COc1cc(SC)ccc1C(=O)Nc1ccc2c(c1)OCCO2 | inconclusive [inhibitor, partial curve, poor fit] | 
O=S(=O)(c1ccc(Cl)cc1)c1nc(-c2cccc(Br)c2)oc1NCc1ccccc1 | inconclusive [inhibitor, single point] | 
CCc1n[n+](CC(=O)c2ccccc2)c(N)s1 | inconclusive [inhibitor, partial curve, poor fit] | 
Cc1c(Cl)cccc1NC(=S)N1CCCCCC1 | inconclusive [inhibitor, single point] | 
COc1ccc(CC(=O)NCCN2CCCC2)cc1 |  | inactive: -0.202%
COc1ccc(F)cc1-c1cc(C(=O)NCc2ccc(F)cc2)[nH]n1 | inconclusive [inhibitor, single point] | 

Structure (SMILES) | Potency | activity change, negative = inhibition
CCOC(=O)c1c(NC(=O)/C=C/C(=O)O)sc(C)c1-c1ccc(C(C)(C)C)cc1 | inconclusive [inhibitor, full curve, poor fit] | 
COc1ccc(CCNc2ncccc2C#N)cc1OC |  | inactive: 37.6%
CN(C(=O)CCN1C(=O)/C(=C/c2ccc(F)cc2)SC1=S)C1CCS(=O)(=O)C1 (stereo not given) |  | inactive: -22.1%
NNC(=O)CN1C(c2ccc(Cl)cc2)=Nc2ccc(Br)cc2C1c1ccccc1 (stereo not given) | inconclusive [inhibitor, single point] | 
CCCn1cc(SCC(=O)NC2CCCC2)c2ccccc21 | inconclusive [inhibitor, partial curve, poor fit] | 
CC1(C(=O)Nc2cccc(Oc3ccccc3)c2)CCN1Cc1ccccc1OC(F)F (stereo not given) | inconclusive [inhibitor, full curve] | 
CC(C)C(N)c1csc(Nc2cc(Oc3ccccc3)ncn2)n1 (stereo not given) | inconclusive [inhibitor, single point] | 
COc1ccc(-c2nnc(SCC(=O)Nc3cc(OC)ccc3OC)nc2-c2ccc(OC)cc2)cc1 | inconclusive [inhibitor, single point] | 
Cc1ccc(C(=O)NC(=S)Nc2cccnc2Cl)cc1 |  | inactive: -5.94%
COc1ccccc1CN(Cc1cc2cc(C)ccc2[nH]c1=O)Cc1nnnn1Cc1ccco1 | inconclusive [inhibitor, single point] | 
O=C(NCC1CCCO1)c1cn(Cc2ccccc2)nc1-c1ccc(Cl)cc1 (stereo not given) | inconclusive [inhibitor, single point] | 
CCCC[C@@H]1CCCO[C@@](C(=O)NCc2ccc(C)o2)(C(F)(F)F)C1 | inconclusive [inhibitor, single point] | 
CCOc1ccc(CN(C(=O)c2ccccn2)c2ccc(OC)c(Cl)c2)cc1 | inconclusive [inhibitor, single point] | 
O=C(NCc1ccccc1)c1cccc(NC(=O)C2CCCCC2)c1 | inconclusive [inhibitor, single point] | 
Cc1nc(SCC(=O)N2CCCCC2)c2c(C)c(C)sc2n1 | inconclusive [inhibitor, single point] | 
Cc1cc2nnc(SCC(=O)Nc3cc(S(=O)(=O)N4CCOCC4)ccc3Cl)n2c2ccccc12 |  | inactive: 35%
O=C1CSC2(C(=O)N(Cc3ccccc3)c3ccccc32)N1c1cccc(F)c1 (stereo not given) | inconclusive [inhibitor, single point] | 
Cc1ccsc1/C=N/NC(=O)c1nnn(-c2nonc2N)c1C(C)C | inconclusive [inhibitor, single point] | 
N#Cc1c(N)nc2c(c1-c1cccc(O)c1)CCCCCC2 | inconclusive [inhibitor, full curve, poor fit] | 
CCN(N=O)c1ccc(C=C2C=Cc3ccccc32)cc1 |  | inactive: -7.68%
CN(C)c1ccc(NC(=O)c2ccc(COc3cccc(Cl)c3)o2)cc1 | inconclusive [inhibitor, single point] | 
CCC(C)NC(=O)c1ccccc1NC(=O)c1ccc(CSc2ccccc2)cc1 (stereo not given) |  | inactive: -28%

Structure (SMILES) | Potency | activity change, negative = inhibition
CS(=O)(=O)c1ccc(-n2nnc3ccccc32)c([N+](=O)[O-])c1 |  | inactive: 133%
CC(C)CCNC(=O)CN(C(=O)CCC(=O)Nc1nccs1)c1ccc2c(c1)OCCO2 | inconclusive [inhibitor, partial curve, poor fit] | 
Cc1ccc(S(=O)(=O)N2CCN(Cc3cc(Br)ccc3O)CC2)cc1 | inconclusive [inhibitor, partial curve, poor fit] | 
CC(C(=O)Nc1cccc(S(=O)(=O)N2CCOCC2)c1)N1CCN(C/C=C/c2ccccc2)CC1 (stereo not given) | inconclusive [inhibitor, single point] | 
Cc1cc(C)nc(/N=C(\N)N(Cc2ccccc2)Cc2ccccc2)n1 | inconclusive [inhibitor, partial curve, poor fit] | 
Cn1cc(S(=O)(=O)N2CCCCCC2)cc1C(=O)N1CCN(c2cccc(C(F)(F)F)c2)CC1 | inconclusive [inhibitor, single point] | 
COc1ccc(-n2c(/C=C/c3cccc(C(F)(F)F)c3)nc3ccccc3c2=O)cc1Cl | inconclusive [inhibitor, partial curve, poor fit] | 
CC(NC(=O)CNC(=S)N(Cc1cccs1)C1CCCC1)c1ccccc1 (stereo not given) | inconclusive [inhibitor, partial curve, poor fit] | 
CN(C)C(CNC(=O)c1cc(Br)c(Br)s1)c1ccco1 (stereo not given) | inconclusive [inhibitor, partial curve, poor fit] | 
CCC1=NN(C(=O)Cc2ccc([N+](=O)[O-])cc2)C(O)(c2ccc(Br)cc2)C1 (stereo not given) | inconclusive [inhibitor, single point] | 
CC1=C(C(=O)OCCc2ccccc2)C(c2ccsc2)NC(=O)N1C (stereo not given) | inconclusive [inhibitor, single point] | 
COC(=O)Nc1ccc(S(=O)(=O)N2CCC(Cc3ccccc3)CC2)cc1 | inconclusive [inhibitor, single point] | 
COCCCNC(=O)CC[C@H]1O[C@@H](n2cnc3c(NC(=O)c4ccccc4)ncnc32)[C@H](O)[C@@H]1O |  | inactive: 15.2%
C#CCOc1ccc(C2C(C(=O)OC)=C(C)NC3=C2C(=O)c2ccccc23)cc1OCC (stereo not given) | inconclusive [inhibitor, single point] | 
Cc1sc(NC(=O)C2CSC3(C)CCC(=O)N23)nc1-c1ccccc1 (stereo not given) | inconclusive [inhibitor, partial curve, poor fit] | 
CCn1c(C)cc(C(=O)CN2C(=O)c3ccccc3S2(=O)=O)c1C | inconclusive [inhibitor, full curve, poor fit] | 
CC1=CC(C)C2C(=O)N(c3ccccc3)NC(=O)C2C1 (stereo not given) | inconclusive [inhibitor, single point] | 
Cc1cc(C)c(NC(=O)c2cc(CN3CCOCC3)on2)c(C)c1 |  | inactive: 3.05%
COc1cccc(CNC(=O)[C@@H]2CCCN2C(=O)OC(C)(C)C)c1 |  | inactive: 14.4%
COc1ccc2cc(S(=O)(=O)c3ccccc3F)c(=O)oc2c1 |  | inactive: -17.3%
N#Cc1cccc(NC(=O)c2cc(C3CCCCN3S(=O)(=O)c3ccccc3)on2)c1 (stereo not given) | inconclusive [inhibitor, single point] | 

— PubChem BioAssay AID624417 (National Center for Advancing Translational Sciences (NCATS), 2012)
